These are yes or no findings as the source states them, for the method shown. Binding seen in cells or lysates may run through a third protein. Some results given as binding are weak or reduced against the parent protein; the word gives no strength. For part of these data: Sequences can lack the tags named with a protein. Blank lines part the entries; values can stand above or below the molecule they belong to.
Assays:
[1] = target: CHC22 clathrin (clathrin heavy chain isoform CHC22) (human (endogenous in HeLa-GLUT4 cells and hSkMC-AB1190 myotubes)) (UniProt P53675); assay: co-IP; endogenous CHC22 (Proteintech antibody) or CHC17 (X22 antibody) immunoprecipitated from precleared postnuclear supernatant of HeLa-GLUT4 cells, overnight 4°C, protein G sepharose; lysis buffer 150 mM NaCl, 20 mM Hepes, 1 mM EDTA, 1 mM EGTA, 10% glycerol, 0.25% NP-40; immunoblot
[2] = target: CHC17 clathrin (canonical clathrin heavy chain isoform CHC17) (human (endogenous in HeLa-GLUT4 cells and hSkMC-AB1190 myotubes)) (UniProt Q00610); assay: as above
[3] = target: CHC22 clathrin (clathrin heavy chain isoform CHC22) (human (endogenous in HeLa-GLUT4 cells and hSkMC-AB1190 myotubes)) (UniProt P53675); assay: co-IP; endogenous CHC22 (Proteintech antibody) or CHC17 (X22 antibody) immunoprecipitated from precleared postnuclear supernatant of human skeletal muscle myotubes (hSkMC-AB1190), overnight 4°C, protein G sepharose; lysis buffer 150 mM NaCl, 20 mM Hepes, 1 mM EDTA, 1 mM EGTA, 10% glycerol, 0.25% NP-40; immunoblot
[4] = target: CHC17 clathrin (canonical clathrin heavy chain isoform CHC17) (human (endogenous in HeLa-GLUT4 cells and hSkMC-AB1190 myotubes)) (UniProt Q00610); assay: as above

Chains of the proteins cited; added tags and fusions are not shown. Residues count along the entry.
UniProt P53675: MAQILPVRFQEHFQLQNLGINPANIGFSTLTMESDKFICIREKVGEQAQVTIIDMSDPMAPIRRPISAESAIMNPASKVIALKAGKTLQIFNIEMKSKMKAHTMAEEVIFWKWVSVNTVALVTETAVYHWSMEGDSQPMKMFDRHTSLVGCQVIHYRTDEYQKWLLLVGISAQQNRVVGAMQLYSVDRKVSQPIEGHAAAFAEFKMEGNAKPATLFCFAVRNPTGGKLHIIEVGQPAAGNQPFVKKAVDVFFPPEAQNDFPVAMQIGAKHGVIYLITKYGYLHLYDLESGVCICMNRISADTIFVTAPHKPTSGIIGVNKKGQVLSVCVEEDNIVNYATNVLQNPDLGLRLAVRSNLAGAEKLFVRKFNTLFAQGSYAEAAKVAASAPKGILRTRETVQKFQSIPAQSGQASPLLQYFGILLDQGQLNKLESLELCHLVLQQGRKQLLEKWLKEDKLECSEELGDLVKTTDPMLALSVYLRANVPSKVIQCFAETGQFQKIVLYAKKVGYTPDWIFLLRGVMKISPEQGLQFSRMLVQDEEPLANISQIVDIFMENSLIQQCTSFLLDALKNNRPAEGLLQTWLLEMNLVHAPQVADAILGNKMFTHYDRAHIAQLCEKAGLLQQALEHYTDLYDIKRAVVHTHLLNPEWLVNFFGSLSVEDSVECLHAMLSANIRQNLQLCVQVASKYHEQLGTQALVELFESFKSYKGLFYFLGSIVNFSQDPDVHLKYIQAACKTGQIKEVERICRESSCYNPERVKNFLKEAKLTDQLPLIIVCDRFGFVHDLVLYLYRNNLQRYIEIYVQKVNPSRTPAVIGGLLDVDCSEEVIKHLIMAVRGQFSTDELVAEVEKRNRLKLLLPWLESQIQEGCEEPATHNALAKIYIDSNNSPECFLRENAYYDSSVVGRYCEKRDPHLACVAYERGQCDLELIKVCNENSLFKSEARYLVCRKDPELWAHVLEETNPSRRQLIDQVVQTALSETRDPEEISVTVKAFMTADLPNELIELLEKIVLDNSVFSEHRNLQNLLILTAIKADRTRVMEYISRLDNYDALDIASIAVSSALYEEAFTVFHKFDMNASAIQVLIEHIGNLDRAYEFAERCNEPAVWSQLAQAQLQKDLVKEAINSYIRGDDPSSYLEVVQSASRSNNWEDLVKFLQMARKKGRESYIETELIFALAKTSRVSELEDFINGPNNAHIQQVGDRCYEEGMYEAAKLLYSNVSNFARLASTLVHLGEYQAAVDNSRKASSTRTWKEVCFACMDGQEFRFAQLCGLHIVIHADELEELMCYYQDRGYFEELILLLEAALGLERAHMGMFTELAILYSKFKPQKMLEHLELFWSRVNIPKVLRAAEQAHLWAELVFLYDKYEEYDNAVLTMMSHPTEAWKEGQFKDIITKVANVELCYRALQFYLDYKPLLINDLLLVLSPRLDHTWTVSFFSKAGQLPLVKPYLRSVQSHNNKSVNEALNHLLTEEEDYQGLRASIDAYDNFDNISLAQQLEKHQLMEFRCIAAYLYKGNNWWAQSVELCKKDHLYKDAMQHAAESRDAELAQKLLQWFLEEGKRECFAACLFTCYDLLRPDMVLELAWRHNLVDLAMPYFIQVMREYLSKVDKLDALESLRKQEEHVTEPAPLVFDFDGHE
UniProt Q00610: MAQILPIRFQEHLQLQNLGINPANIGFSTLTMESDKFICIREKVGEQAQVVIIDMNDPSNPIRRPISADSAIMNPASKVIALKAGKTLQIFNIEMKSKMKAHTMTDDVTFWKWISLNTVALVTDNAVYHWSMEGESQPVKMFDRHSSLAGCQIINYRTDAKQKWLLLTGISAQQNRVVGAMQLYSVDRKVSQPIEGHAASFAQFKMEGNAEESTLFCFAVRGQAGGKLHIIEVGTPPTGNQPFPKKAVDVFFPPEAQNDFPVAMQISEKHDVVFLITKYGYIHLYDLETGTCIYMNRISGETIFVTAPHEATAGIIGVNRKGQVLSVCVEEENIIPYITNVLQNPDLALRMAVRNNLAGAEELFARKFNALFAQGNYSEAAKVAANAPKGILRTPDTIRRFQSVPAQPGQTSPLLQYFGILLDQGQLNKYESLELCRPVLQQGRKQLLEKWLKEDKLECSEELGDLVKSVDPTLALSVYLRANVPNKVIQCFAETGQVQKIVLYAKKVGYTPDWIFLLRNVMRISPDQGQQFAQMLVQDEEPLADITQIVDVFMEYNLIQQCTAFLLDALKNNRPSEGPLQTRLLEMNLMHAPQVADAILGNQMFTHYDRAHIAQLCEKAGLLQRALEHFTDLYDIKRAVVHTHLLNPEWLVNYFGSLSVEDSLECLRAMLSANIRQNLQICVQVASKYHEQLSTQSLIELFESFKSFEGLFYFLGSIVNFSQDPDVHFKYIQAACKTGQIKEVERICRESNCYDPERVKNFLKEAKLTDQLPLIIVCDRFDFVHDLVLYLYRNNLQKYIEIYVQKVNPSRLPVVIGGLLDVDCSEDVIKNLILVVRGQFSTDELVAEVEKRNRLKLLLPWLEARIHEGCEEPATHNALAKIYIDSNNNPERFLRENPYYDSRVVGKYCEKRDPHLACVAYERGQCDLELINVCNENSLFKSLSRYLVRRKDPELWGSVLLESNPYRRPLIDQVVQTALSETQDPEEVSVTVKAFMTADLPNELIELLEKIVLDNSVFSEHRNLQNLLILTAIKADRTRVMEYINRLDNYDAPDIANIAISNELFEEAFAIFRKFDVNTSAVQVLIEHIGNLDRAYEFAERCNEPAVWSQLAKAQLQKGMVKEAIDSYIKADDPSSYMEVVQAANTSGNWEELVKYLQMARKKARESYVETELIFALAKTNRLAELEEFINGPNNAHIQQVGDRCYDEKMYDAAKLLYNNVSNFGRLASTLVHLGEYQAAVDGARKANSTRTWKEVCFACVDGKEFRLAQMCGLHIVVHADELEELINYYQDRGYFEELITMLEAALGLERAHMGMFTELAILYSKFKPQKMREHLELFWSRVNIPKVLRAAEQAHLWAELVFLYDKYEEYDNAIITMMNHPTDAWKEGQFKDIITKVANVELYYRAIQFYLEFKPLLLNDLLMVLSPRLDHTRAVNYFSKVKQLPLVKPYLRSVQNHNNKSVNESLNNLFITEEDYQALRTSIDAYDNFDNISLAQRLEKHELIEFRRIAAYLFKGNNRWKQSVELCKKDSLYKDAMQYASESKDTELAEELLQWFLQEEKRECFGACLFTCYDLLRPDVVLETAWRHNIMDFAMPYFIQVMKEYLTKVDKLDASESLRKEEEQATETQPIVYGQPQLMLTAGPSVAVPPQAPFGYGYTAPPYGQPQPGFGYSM
UniProt Q99523, residues 78-831: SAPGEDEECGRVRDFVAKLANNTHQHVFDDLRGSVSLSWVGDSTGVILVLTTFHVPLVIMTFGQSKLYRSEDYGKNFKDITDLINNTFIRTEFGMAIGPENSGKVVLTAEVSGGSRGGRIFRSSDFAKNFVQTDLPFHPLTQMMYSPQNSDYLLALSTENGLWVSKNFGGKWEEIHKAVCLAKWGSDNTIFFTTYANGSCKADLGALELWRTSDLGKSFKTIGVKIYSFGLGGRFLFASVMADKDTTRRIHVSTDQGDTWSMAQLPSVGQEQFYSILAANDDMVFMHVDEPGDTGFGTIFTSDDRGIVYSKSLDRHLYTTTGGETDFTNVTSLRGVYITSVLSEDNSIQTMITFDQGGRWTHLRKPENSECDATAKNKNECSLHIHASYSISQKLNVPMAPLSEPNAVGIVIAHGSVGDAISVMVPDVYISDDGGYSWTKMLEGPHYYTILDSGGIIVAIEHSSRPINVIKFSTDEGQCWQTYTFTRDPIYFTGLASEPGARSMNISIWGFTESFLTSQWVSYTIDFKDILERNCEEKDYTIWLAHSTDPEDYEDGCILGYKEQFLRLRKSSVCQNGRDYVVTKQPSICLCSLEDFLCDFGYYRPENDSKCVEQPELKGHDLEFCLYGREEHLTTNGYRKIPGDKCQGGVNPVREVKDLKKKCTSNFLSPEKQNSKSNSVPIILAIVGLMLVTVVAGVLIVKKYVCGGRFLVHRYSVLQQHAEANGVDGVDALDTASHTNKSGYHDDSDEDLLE

binding [1]: binds | binding [2]: no binding | binding [3]: binds | binding [4]: no binding
Molecule: sortilin (from UniProt Q99523 78-831)

binding [1]: binds | binding [2]: no binding | binding [3]: binds | binding [4]: no binding
B1: p115 (ERGIC vesicle tether p115) (protein, UniProt O60763 1-962)
chain: MNFLRGVMGGQSAGPQHTEAETIQKLCDRVASSTLLDDRRNAVRALKSLSKKYRLEVGIQAMEHLIHVLQTDRSDSEIIGYALDTLYNIISNEEEEEVEENSTRQSEDLGSQFTEIFIKQQENVTLLLSLLEEFDFHVRWPGVKLLTSLLKQLGPQVQQIILVSPMGVSRLMDLLADSREVIRNDGVLLLQALTRSNGAIQKIVAFENAFERLLDIISEEGNSDGGIVVEDCLILLQNLLKNNNSNQNFFKEGSYIQRMKPWFEVGDENSGWSAQKVTNLHLMLQLVRVLVSPTNPPGATSSCQKAMFQCGLLQQLCTILMATGVPADILTETINTVSEVIRGCQVNQDYFASVNAPSNPPRPAIVVLLMSMVNERQPFVLRCAVLYCFQCFLYKNQKGQGEIVSTLLPSTIDATGNSVSAGQLLCGGLFSTDSLSNWCAAVALAHALQENATQKEQLLRVQLATSIGNPPVSLLQQCTNILSQGSKIQTRVGLLMLLCTWLSNCPIAVTHFLHNSANVPFLTGQIAENLGEEEQLVQGLCALLLGISIYFNDNSLESYMKEKLKQLIEKRIGKENFIEKLGFISKHELYSRASQKPQPNFPSPEYMIFDHEFTKLVKELEGVITKAIYKSSEEDKKEEEVKKTLEQHDNIVTHYKNMIREQDLQLEELRQQVSTLKCQNEQLQTAVTQQVSQIQQHKDQYNLLKIQLGKDNQHQGSYSEGAQMNGIQPEEIGRLREEIEELKRNQELLQSQLTEKDSMIENMKSSQTSGTNEQSSAIVSARDSEQVAELKQELATLKSQLNSQSVEITKLQTEKQELLQKTEAFAKSVEVQGETETIIATKTTDVEGRLSALLQETKELKNEIKALSEERTAIKEQLDSSNSTIAILQTEKDKLELEITDSKKEQDDLLVLLADQDQKILSLKNKLKDLGHPVEEEDELESGDQEDEDDESEDPGKDLDHI

binding [1]: binds | binding [2]: binds
B2: HA-GLUT4-GFP (human GLUT4 with an HA tag in the first exofacial loop and a GFP tag at the intracellular carboxyl terminus) (protein, UniProt P14672 1-509)
chain: MPSGFQQIGSEDGEPPQQRVTGTLVLAVFSAVLGSLQFGYNIGVINAPQKVIEQSYNETWLGRQGPEGPSSIPPGTLTTLWALSVAIFSVGGMISSFLIGIISQWLGRKRAMLVNNVLAVLGGSLMGLANAAASYEMLILGRFLIGAYSGLTSGLVPMYVGEIAPTHLRGALGTLNQLAIVIGILIAQVLGLESLLGTASLWPLLLGLTVLPALLQLVLLPFCPESPRYLYIIQNLEGPARKSLKRLTGWADVSGVLAELKDEKRKLERERPLSLLQLLGSRTHRQPLIIAVVLQLSQQLSGINAVFYYSTSIFETAGVGQPAYATIGAGVVNTVFTLVSVLLVERAGRRTLHLLGLAGMCGCAILMTVALLLLERVPAMSYVSIVAIFGFVAFFEIGPGPIPWFIVAELFSQGPRPAAMAVAGFSNWTSNFIIGMGFQYVAEAMGPYVFLLFAVLLLGFFIFTFLRVPETRGRTFDQISAAFHRTPSLLEQEVKPSTELEYLGPDEND

binding [3]: binds | binding [4]: binds
B3: GLUT4 (muscle cell GLUT4 of human skeletal muscle myotubes) (protein, UniProt P14672 1-509)
chain: B2 chain
